The whole screen tested about 110,000 compounds, of which about 230 (0.21%) showed an effect of 50% or more. The list shows a part of the results.
The compounds below were run against DPAP1 (Plasmodium falciparum, UniProt Q8IIJ9) (assay: primary screen, percent inhibition; read by cleavage of a fluorogenic dipeptide substrate; higher = more effect of the substance).
Design: species or system P. falciparum D10 trophozoite lysates; single well
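Note: 30 min substrate incubation versus DMSO and 10 µM JCP410 controls.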

Chain of DPAP1 (Q8IIJ9 whole entry, looked up): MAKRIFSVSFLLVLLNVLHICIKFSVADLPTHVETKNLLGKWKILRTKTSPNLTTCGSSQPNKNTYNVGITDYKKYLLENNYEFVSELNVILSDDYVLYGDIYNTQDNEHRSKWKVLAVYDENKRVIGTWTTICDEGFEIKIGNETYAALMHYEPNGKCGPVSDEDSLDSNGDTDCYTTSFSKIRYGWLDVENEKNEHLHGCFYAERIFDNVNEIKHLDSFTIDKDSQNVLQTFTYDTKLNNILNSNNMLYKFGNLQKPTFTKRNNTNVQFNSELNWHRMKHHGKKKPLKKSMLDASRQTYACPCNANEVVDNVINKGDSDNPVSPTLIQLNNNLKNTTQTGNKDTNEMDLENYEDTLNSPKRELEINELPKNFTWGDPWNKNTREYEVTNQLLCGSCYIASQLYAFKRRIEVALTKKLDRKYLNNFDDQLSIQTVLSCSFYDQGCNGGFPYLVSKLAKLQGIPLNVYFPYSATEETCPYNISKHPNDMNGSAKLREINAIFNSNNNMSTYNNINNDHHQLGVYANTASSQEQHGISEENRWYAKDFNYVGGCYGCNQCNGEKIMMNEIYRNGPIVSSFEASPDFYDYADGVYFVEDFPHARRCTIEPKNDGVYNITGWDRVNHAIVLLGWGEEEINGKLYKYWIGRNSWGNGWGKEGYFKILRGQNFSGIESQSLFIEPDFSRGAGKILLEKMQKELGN

Compound | % Inhibition @ 10 uM [%]
CCn1nc(C)c(/C=C2\CCCC3=C2OC(N)=C(C#N)C3c2c(C)nn(CC)c2C)c1C (stereo not shown) | 1.35
CCNC(=O)C(CC(C)C)NC(=O)OC(C)(C)C (stereo not shown) | -9.6
CCCCCCSC1=C(C#N)C(c2ccc(OC)cc2)CC(=O)N1 (stereo not shown) | -0.769
COc1ccccc1NC(=O)/C(=C/c1ccccc1Cl)NC(=O)c1ccccc1 | 4.01
COc1ccc(C2C(C#N)=C(N)N(c3ccc(Cl)cc3)C3=C2C(=O)CCC3)cc1 (stereo not shown) | -0.725
O=C(OCCCC(=O)N1CCOCC1)c1ccccc1 | -0.693
Cn1nccc1C(=O)NCCN1C(=O)OC(C)(C)C1(C)O (stereo not shown) | 0.983
CC(C)N1C/C(=C/c2cccnc2)C(=O)/C(=C/c2cccnc2)C1 | 1.74
O=C1c2ccccc2CN1CCSC(=S)N1CCOCC1 | -5.96
O=C(NCCCc1ccccc1)c1ccc2nc(N3CCCCC3)sc2c1 | -6.01
O=C(/C=C/c1ccccc1)c1cccc(N2C(=O)C3C4C=CC(C4)C3C2=O)c1 (stereo not shown) | -3.32
Cc1n[nH]c(C)c1S(=O)(=O)N1CCC(C(=O)NCCc2ccccc2)CC1 | -9.46
COc1cc(C2C3=C(CCCC3=O)OC3=C2C(=O)CCC3)ccc1OC1CCCC1 | 1.88
CC1CCC(NCC2CCCO2)CC1 (stereo not shown) | -3.6
COc1ccc(C(=O)Nc2ccc(C)cn2)cc1OC | 2.43
OC1=C2C(=Nc3nc(SCc4ccccc4Cl)nn3C2c2cccnc2)CCC1 (stereo not shown) | 9.37
O=C(O)c1ccccc1C(=O)N1CCN(CCO)CC1 | -8.41
CC(C)CC(=O)N1c2ccccc2N=C2CC(C)(C)CC(O)=C2C1c1ccco1 (stereo not shown) | -2.07
CCOC(=O)CN(C)Cc1ccccc1Br | -2.34
O=C1N=C(N2CCCC2)S/C1=C\c1ccccc1 | -0.759
Cc1ccccc1N1CCN(Cc2coc3ccccc3c2=O)CC1 | -3.77
c1nc2sc3c(c2c2nnnn12)CCC3 | -1.5
CCN(CC)S(=O)(=O)c1ccc(NC(=O)COc2ccc(Br)cc2C)cc1 | -4.63
Cc1cc(Br)ccc1S(=O)(=O)N1CCOCC1 | 3.82
CCCN(CCC)S(=O)(=O)c1cc(-c2onc(C)c2C)ccc1C | 2.35

Compound | % Inhibition @ 10 uM [%]
COc1ccccc1C1=N/C(=C\c2c(F)cccc2Cl)C(=O)O1 | 8.79
COCC(CN1CCN(C2=NS(=O)(=O)c3ccccc32)CC1)OC(=O)c1ccc(C)cc1 (stereo not shown) | -4.51
N/C(=N\N=C\c1cc(Br)ccc1O)c1nonc1N | -10.9
CCn1cc(Cl)c(C(=O)N2N=C(c3ccc4c(c3)OCCO4)CC2c2ccccc2O)n1 (stereo not shown) | 0.658
Clc1ccc2nc3c4ccccc4cnn3c2c1 | -1.11
CCc1nc2ccc(C(=O)NC)cc2nc1CC | 2.93
Cc1ccc2c(c1)-c1c(cnn1CC(=O)N1CC(C)CC(C)C1)CO2 (stereo not shown) | 14.5
CC1=C(C(=O)Nc2ccccc2C)C(c2cccc(F)c2)C2=C(O)CCCC2=N1 (stereo not shown) | -6.36
O=C(NCCc1ccc(Cl)cc1)c1noc2c1COc1ccccc1-2 | 82.6
CNC(=O)c1cc(S(=O)(=O)NC2CCCCCC2)ccc1C | -7.14
O=C(NCc1ccccn1)c1ccc2c(c1)sc1nc(-c3ccc(F)cc3)cn12 | 5.88
COc1cccc(C(=O)N2CCN(CCCc3ccccc3)CC2)c1 | 3.47
O=C(O)/C=C\C(=O)Nc1ccc(C(=O)O)cc1 | -1.8
N#Cc1nnc2ccnn2c1N | -2.87
COc1ccc(-c2nc(CSCC(=O)N3CCC(Cc4ccccc4)CC3)c(C)o2)cc1OC | 2.37
CCCNC(=O)C1Sc2nnc(C)n2NC1c1ccc(OCC)cc1 (stereo not shown) | 4.93
O=C(Nc1ccc(O)cc1)c1cccc([N+](=O)[O-])c1 | 2.94
CC(c1nc2ccccc2n1C)C(O)(c1ccccc1)c1ccccc1 (stereo not shown) | -6.08
CN1CCC(=NNC(=O)C(=O)Nc2ccc(Cl)c(Cl)c2)CC1 | 6.66
Cc1ccc(C(=O)COc2cc3oc(=O)cc(C)c3cc2Cl)cc1 | 4.47
CC(C)OCCCn1c(=O)c2ccccc2n2c(CCC(=O)NC3CCCCC3)nnc12 | -1.44
COc1cc(C2c3c(-c4ccccc4O)n[nH]c3C(=O)N2CCO)cc(Br)c1O (stereo not shown) | -4.95
CCc1ccc(C2=CC(c3cccc(C)c3)n3ncnc3N2)cc1 (stereo not shown) | -5.19
COc1ccc2[nH]c(SCCN3CCCC3)nc2c1 | -1.66
CCc1c(C)nn(-c2ccc(Oc3ccccc3)c(S(=O)(=O)O)c2)c1O | -0.0735

Compound | % Inhibition @ 10 uM [%]
COc1cc(OC)cc(C(=O)Nc2ccc(Cc3ccncc3)cc2)c1 | -0.303
CC1CC(C)CN(C(=O)c2nn(C)c3c2CSc2ccccc2-3)C1 (stereo not shown) | 0.00665
CCOc1ccc(Oc2cc(N)cc(Oc3cccnc3)c2)cc1 | -7.99
Cc1ccccc1OCC(=O)NC1CCCCCC1 | -1.61
N#Cc1c(N)n(-c2ccc(Cl)cc2)c2nc3ccccc3nc12 | -5.5
CN1CCN(C(=O)c2ccc(CSc3nc4ccncc4n3Cc3ccc(F)cc3)cc2)CC1 | 4.22
Cc1cc(C)c2c(n1)nn1c(C)c(CCC(=O)NCCCc3ccccc3)c(C)nc21 | 0.953
CCOC(=O)c1c(C)nc(C)c(C(=O)OCC)c1-c1ccccc1 | 1.57
CC(=O)Nc1ccc(C(=O)Nc2cccc([N+](=O)[O-])c2)cc1 | -5.57
COc1ccc(N(CC(=O)Nc2cccc(C)c2)S(=O)(=O)c2ccccc2)cc1OC | -12.7
CC(C)CNc1nc(NC(C)(C)C)nc(Oc2ccc(=O)n(C)n2)n1 | -8.78
COC(=O)C1=CN(C)C=C(C(=O)OC)C1c1cccc(C)c1 | -3.21
Cn1c2ccccc2c2cnn(CC(=O)NCCCc3ccccc3)c(=O)c21 | -3.9
Cc1sc2nc(SCC(=O)NCCOCCO)n(C)c(=O)c2c1C | -5.34
O=C(CSc1nnc(-c2cccnc2)o1)c1cc2ccccc2oc1=O | -2.63
CCN(CC)c1ccc(NC(=O)C2Cc3ccccc3CN2S(=O)(=O)c2cccs2)cc1 (stereo not shown) | 0.755
CC(=O)C1=C(C)N=C(S)NC1c1cc([N+](=O)[O-])ccc1O (stereo not shown) | 1.66
Cc1nc(Cl)c2cc(-c3ccccc3)sc2n1 | -10.3
CCN(CC)CCN(C)C(C)CCc1ccccc1 (stereo not shown) | 1.83
NC(=O)c1c(NC(=O)c2ccc(F)cc2)sc2c1CCCC2 | -4.58
C#CC(C)(O)CCc1c(C)cc(OC)c(C)c1C (stereo not shown) | 0.878
CC(C)(C)NC(=O)c1oc2ccccc2c1NC(=O)C1CCCC1 | -4.8
N#CC1=C(N)Oc2[nH]nc(-c3ccccc3)c2C1c1ccc(F)cc1 (stereo not shown) | 2.46
CCOC(=O)C1=C(N)OC2=C(C(=O)CCC2)C1c1cc(Cn2cnc3ccccc32)cs1 (stereo not shown) | 4.57
COc1cc(-c2cc(NC(=O)Cn3ncc4c5ccccc5nc-4c3O)on2)cc(OC)c1OC | 1.66

Compound | % Inhibition @ 10 uM [%]
COC(=O)C1=C(C)N(CC(C)C)C(=O)/C1=C\c1cc(C)n(-c2ccc(OC)c(Cl)c2)c1C | -0.0626
CSc1ncc(C(=O)NCc2cccc(C)c2)c(C)n1 | 3.85
Cc1nc2cc(-n3cc4c(c3-c3ccc(Br)cc3)c(=O)n(C)c(=O)n4C)ccc2n1C | -0.0678
Cn1ccnc1Sc1nc2c(c(=O)n(C)c(=O)n2C)n1Cc1cccc(Cl)c1 | 5.65
COc1ccc(-c2cc(C(F)(F)F)c3c(N)c(C#N)sc3n2)cc1 | -0.994
COCCNC(=O)COCc1cc(-c2ccc3c(c2)OCO3)on1 | 1.6
Cc1ccc(CNC(=O)Cn2c3ccccc3c3cnnc(O)c32)cc1 | 4.83
CC1=C(C(=O)Nc2ccc(C)cc2)C(c2ccccc2F)NC(=O)N1 (stereo not shown) | -3.5
Cc1ccc(CCNS(=O)(=O)c2c[nH]cn2)cc1 | 1.23
Cc1ccc(CS(=O)(=O)CCC(=O)NCCCOC(C)C)cc1 | -2.99
Cc1ccc(S(=O)(=O)Nc2cccc(C(=O)NCCO)c2)cc1 | -2.77
CCN(CC)S(=O)(=O)c1cccc(-c2cn3cccnc3n2)c1 | -0.25
Cc1ccc(S(=O)(=O)N2CCCC2C(=O)NCCc2nc3ccccc3[nH]2)cc1 (stereo not shown) | 3.25
CCCN(CCC)CCCNc1ccc2nnc(-c3ccc(F)cc3)n2n1 | 4.95
CCc1nn(C(C)C(=O)NCCC2=CCCCC2)c(=O)c2cc3occc3n12 (stereo not shown) | 1.38
COc1ccc(CCNS(=O)(=O)c2cc(Br)cnc2N)cc1OC | -2.84
CC(C)CCN1C(=O)S/C(=C/c2ccc(N(C)C)cc2)C1=O | -6.25
COc1cccc(/C=C2\N=C(c3ccc(Cl)c(Cl)c3)OC2=O)c1OC | 2.14
CCOC(=O)N1CCN(c2c(NCCc3ccc(OC)c(OC)c3)c(=O)c2=O)CC1 | 3.54
CS(=O)(=O)N(CC(=O)N1CCN(Cc2ccccc2)CC1)c1ccccc1F | -13.5
CC(C)OCCCNC(=O)Cn1cnc2onc(-c3ccc(F)cc3)c2c1=O | 0.186
Cc1cc(O)nc(SCc2nc(-c3ccc(Cl)cc3)no2)n1 | 2.31
CC(C)=CCC[C@H](C)CCN1CCOCC1 | -3.15
NS(=O)(=O)c1ccc(-c2ccc(/C=c3\sc4nc(=O)c(-c5ccccc5)nn4c3=O)o2)cc1 | 5.12
CCN(CC)C(=O)C1CCCN(Cc2cccs2)C1 (stereo not shown) | 3.16

Reference: paper PMC6919601, “Identification of Plasmodium dipeptidyl aminopeptidase allosteric inhibitors by high throughput screening” (PLoS ONE, 2019)
